Measured values published in the supplement of paper PMC12217912.
Some of the results follow. Sequences were assembled here from the parent chain. Values near 0.05 are background.

B1: TEV protease; numbered along this chain (parent)
chain: MGESLFKGPRDYNPISSSICHLTNESDGHTTSLYGIGFGPFIITNKHLFRRNNGTLVVQSLHGVFKVKDTTTLQQHLVDGRDMIIIRMPKDFPPFPQKLKFREPQREERICLVTTNFQTKSMSSMVSDTSCTFPSGDGIFWKHWIQTKDGQCGSPLVSTRDGFIVGIHSASNFTNTNNYFTSVPKNFMELLTNQEAQQWVSGWRLNADSVLWGGHKVFMVKPEEPFQPVKEATQL

Variants of: B1
Assay: raw area under fraction-flipped curve 0-4 h after induction (AUC4h, not background-subtracted), DNA-recorder readout of cleavage of the substrate (dimensionless); higher = more cleavage of the substrate by the protease variant
Settings: temperature: 34 °C; time window: 0-4 h after rhamnose induction
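Also: Bxb1 expression induced with 0.2% (w/v) L-rhamnose at OD600 near 0.5, cultures sampled hourly, flipped fraction per protease–substrate barcode pair counted by paired-end Illumina sequencing.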

| Variant | area with substrate CNLYFQS | area with substrate DNLYFQS | area with substrate FNLYFQS | area with substrate HNLYFQS | area with substrate INLYFQS | area with substrate KNLYFQS | area with substrate LNLYFQS | area with substrate PNLYFQS | area with substrate SNLYFQS | area with substrate TNLYFQS | area with substrate VNLYFQS | area with substrate WNLYFQS | area with substrate GNLYFQS | area with substrate MNLYFQS | area with substrate NNLYFQS | area with substrate QNLYFQS | area with substrate RNLYFQS | area with substrate YNLYFQS |
| --- | --- | --- | --- | --- | --- | --- | --- | --- | --- | --- | --- | --- | --- | --- | --- | --- | --- | --- |
| W144D | 0.0761 | 0.0752 | 0.0665 | 0.031 | 0.0691 | 0.0876 | 0.0658 | 0.0787 | 0.0718 | 0.0673 | 0.0781 | 0.0572 | – | – | – | – | – | – |
| W144A | 0.0677 | 0.0889 | – | – | 0.0696 | – | 0.0377 | 0.085 | 0.0677 | 0.0748 | – | 0.0763 | 0.0689 | 0.0745 | 0.0657 | – | – | – |
| W144G | 0.0661 | 0.0757 | – | 0.0626 | – | 0.0699 | 0.0696 | – | 0.0479 | 0.0715 | – | 0.0431 | 0.0626 | – | 0.0602 | 0.0709 | 0.0651 | 0.0723 |
| W144I | 0.0192 | – | – | 0.0662 | 0.0596 | – | 0.0624 | 0.0631 | 0.0656 | 0.0689 | 0.0692 | 0.0507 | – | 0.0646 | 0.0588 | – | 0.0594 | – |
| I145T | 0.0541 | 0.0803 | 0.0607 | 0.0604 | 0.0508 | 0.0764 | 0.0744 | 0.0626 | 0.0745 | 0.0869 | 0.0703 | 0.0611 | – | 0.0563 | – | 0.0727 | – | 0.056 |
| G136F | 0.0659 | – | 0.0606 | 0.0675 | – | 0.0586 | 0.0487 | 0.0756 | 0.0616 | 0.0637 | 0.0891 | 0.0639 | 0.0755 | 0.0491 | 0.0672 | – | – | 0.069 |
| G136V | 0.0664 | 0.0938 | 0.0293 | 0.0585 | 0.0582 | – | 0.067 | 0.0633 | – | 0.0595 | 0.0618 | – | 0.0557 | 0.0546 | 0.0563 | – | – | – |
| I167D | 0.04 | 0.0508 | 0.0527 | 0.0457 | 0.0582 | 0.0504 | 0.0562 | – | – | – | – | 0.0406 | 0.0456 | – | – | – | – | – |
| C152R | 0.0676 | 0.0584 | – | 0.0524 | 0.0585 | 0.048 | 0.0613 | – | – | 0.0579 | – | 0.0605 | 0.0178 | – | 0.0636 | – | – | – |
| C152T | 0.0634 | 0.0662 | – | 0.0572 | 0.0687 | 0.0627 | – | – | 0.0574 | 0.0328 | – | 0.0585 | 0.0641 | 0.0607 | 0.0534 | – | – | – |
| C152Q | 0.0607 | – | 0.0663 | 0.0584 | 0.0474 | – | – | – | – | – | – | 0.0456 | – | – | – | – | – | 0.0532 |
| C152Y | 0.0654 | – | 0.0472 | 0.0618 | 0.0626 | – | 0.0584 | 0.0572 | 0.0591 | – | – | – | 0.0453 | 0.0763 | – | – | 0.0659 | 0.0506 |
| R160G | 0.0731 | – | 0.0811 | 0.0597 | – | 0.0704 | 0.0642 | 0.0522 | 0.0859 | 0.0848 | 0.0643 | 0.0588 | – | – | – | – | – | 0.0651 |
| R160Q | 0.0722 | 0.0706 | – | 0.0557 | 0.0942 | 0.0594 | 0.0589 | 0.0651 | – | 0.0944 | 0.0664 | 0.0664 | 0.0703 | 0.0614 | – | – | 0.0567 | 0.0712 |
| R160T | 0.0722 | – | 0.0633 | 0.0619 | – | – | – | – | – | 0.0679 | 0.0722 | 0.0657 | – | 0.0586 | – | – | 0.0428 | – |
| R160C | 0.0667 | 0.072 | 0.0718 | 0.0691 | – | 0.0597 | 0.0593 | 0.0696 | 0.0991 | 0.0699 | – | 0.0491 | 0.074 | 0.0667 | – | – | – | 0.0672 |
| R160E | 0.078 | 0.0815 | 0.0945 | 0.0783 | – | 0.0778 | 0.0632 | 0.0674 | 0.0777 | 0.0653 | 0.0731 | 0.0621 | 0.0718 | 0.0628 | 0.0389 | 0.0734 | – | 0.0626 |
| P155Q | 0.05 | 0.0533 | 0.0553 | 0.0701 | 0.0428 | 0.0608 | 0.0541 | 0.053 | 0.0562 | 0.0547 | – | 0.0414 | 0.0465 | 0.0469 | 0.0469 | 0.0351 | 0.0396 | 0.0505 |
| V157G | 0.0759 | 0.0473 | 0.0503 | 0.0529 | – | 0.0619 | – | 0.0491 | 0.0474 | 0.0551 | – | 0.0435 | – | – | 0.0869 | – | – | – |
| L156N | 0.053 | 0.051 | – | 0.0499 | 0.0607 | – | 0.0676 | 0.0793 | 0.057 | 0.0455 | 0.058 | 0.0551 | 0.051 | – | 0.0517 | – | – | 0.0364 |
| W141S | 0.0541 | 0.0334 | 0.0526 | 0.0521 | 0.0448 | 0.0668 | – | 0.0104 | 0.0562 | 0.0499 | 0.0611 | 0.0558 | 0.0722 | 0.0453 | 0.0663 | – | – | 0.0527 |
| H168V | 0.0595 | – | – | 0.0738 | – | 0.0674 | 0.0758 | 0.0626 | – | 0.0546 | – | 0.0614 | – | 0.0467 | 0.0571 | 0.0516 | 0.0435 | 0.0588 |
| H168R | 0.0598 | – | – | 0.0503 | 0.0448 | – | 0.0599 | 0.0514 | 0.0513 | 0.063 | – | 0.0538 | – | – | – | – | – | 0.0748 |
| H168T | 0.0563 | – | 0.0602 | 0.0582 | – | 0.0592 | 0.0637 | 0.0751 | – | 0.0652 | – | 0.0591 | 0.0634 | 0.0605 | 0.0537 | – | 0.0336 | – |
| G150T | 0.0491 | 0.0642 | 0.0573 | 0.061 | 0.0544 | – | 0.0689 | 0.0542 | 0.0601 | 0.0621 | 0.0564 | 0.0649 | 0.0678 | 0.0594 | 0.0588 | 0.0676 | – | 0.0607 |
| G150C | 0.0628 | 0.0591 | 0.057 | 0.0565 | 0.0531 | 0.0628 | 0.0643 | 0.0526 | 0.0698 | 0.0547 | – | 0.0555 | 0.0647 | 0.0598 | – | 0.0538 | – | 0.0608 |
| G150N | 0.0568 | 0.0639 | – | 0.0606 | 0.0565 | 0.0621 | 0.0526 | 0.0514 | 0.0407 | 0.0605 | – | 0.0594 | 0.0625 | 0.0611 | 0.0636 | 0.0686 | – | 0.0525 |
| T159C | 0.0629 | – | – | – | 0.0424 | – | – | – | – | – | – | 0.039 | – | – | – | – | – | – |
| D149G | 0.0501 | 0.0547 | – | 0.062 | – | 0.0581 | 0.0593 | 0.0671 | 0.0435 | 0.0677 | 0.0685 | 0.059 | 0.057 | – | 0.0377 | – | – | 0.053 |
